{"source": "PubChem BioAssay AID1347165", "about": "(National Center for Advancing Translational Sciences (NCATS), 2019)", "note": "Screen size: about 220,000 compounds; about 5,700 (2.6%) were called active. This list was built around the results that the source calls inconclusive (neither active nor inactive); the mix of calls is not that of the screen. Calls come from the whole dose curve; as a rule, active = well fitted inhibition curve with a large enough effect; inconclusive = small, poorly fitted or top-dose-only effect; inactive = no such curve, though single readings can be large or run the other way. Potencies beside an inconclusive call are fits to weak or partial responses and may not hold up. Potency is the fitted concentration of half-maximal effect; tags give direction and shape of the fitted curve."}
{"target": "Lysine-specific demethylase 5B (Homo sapiens) (UniProt Q9UGL1)", "sequence (Q9UGL1 whole entry, looked up)": "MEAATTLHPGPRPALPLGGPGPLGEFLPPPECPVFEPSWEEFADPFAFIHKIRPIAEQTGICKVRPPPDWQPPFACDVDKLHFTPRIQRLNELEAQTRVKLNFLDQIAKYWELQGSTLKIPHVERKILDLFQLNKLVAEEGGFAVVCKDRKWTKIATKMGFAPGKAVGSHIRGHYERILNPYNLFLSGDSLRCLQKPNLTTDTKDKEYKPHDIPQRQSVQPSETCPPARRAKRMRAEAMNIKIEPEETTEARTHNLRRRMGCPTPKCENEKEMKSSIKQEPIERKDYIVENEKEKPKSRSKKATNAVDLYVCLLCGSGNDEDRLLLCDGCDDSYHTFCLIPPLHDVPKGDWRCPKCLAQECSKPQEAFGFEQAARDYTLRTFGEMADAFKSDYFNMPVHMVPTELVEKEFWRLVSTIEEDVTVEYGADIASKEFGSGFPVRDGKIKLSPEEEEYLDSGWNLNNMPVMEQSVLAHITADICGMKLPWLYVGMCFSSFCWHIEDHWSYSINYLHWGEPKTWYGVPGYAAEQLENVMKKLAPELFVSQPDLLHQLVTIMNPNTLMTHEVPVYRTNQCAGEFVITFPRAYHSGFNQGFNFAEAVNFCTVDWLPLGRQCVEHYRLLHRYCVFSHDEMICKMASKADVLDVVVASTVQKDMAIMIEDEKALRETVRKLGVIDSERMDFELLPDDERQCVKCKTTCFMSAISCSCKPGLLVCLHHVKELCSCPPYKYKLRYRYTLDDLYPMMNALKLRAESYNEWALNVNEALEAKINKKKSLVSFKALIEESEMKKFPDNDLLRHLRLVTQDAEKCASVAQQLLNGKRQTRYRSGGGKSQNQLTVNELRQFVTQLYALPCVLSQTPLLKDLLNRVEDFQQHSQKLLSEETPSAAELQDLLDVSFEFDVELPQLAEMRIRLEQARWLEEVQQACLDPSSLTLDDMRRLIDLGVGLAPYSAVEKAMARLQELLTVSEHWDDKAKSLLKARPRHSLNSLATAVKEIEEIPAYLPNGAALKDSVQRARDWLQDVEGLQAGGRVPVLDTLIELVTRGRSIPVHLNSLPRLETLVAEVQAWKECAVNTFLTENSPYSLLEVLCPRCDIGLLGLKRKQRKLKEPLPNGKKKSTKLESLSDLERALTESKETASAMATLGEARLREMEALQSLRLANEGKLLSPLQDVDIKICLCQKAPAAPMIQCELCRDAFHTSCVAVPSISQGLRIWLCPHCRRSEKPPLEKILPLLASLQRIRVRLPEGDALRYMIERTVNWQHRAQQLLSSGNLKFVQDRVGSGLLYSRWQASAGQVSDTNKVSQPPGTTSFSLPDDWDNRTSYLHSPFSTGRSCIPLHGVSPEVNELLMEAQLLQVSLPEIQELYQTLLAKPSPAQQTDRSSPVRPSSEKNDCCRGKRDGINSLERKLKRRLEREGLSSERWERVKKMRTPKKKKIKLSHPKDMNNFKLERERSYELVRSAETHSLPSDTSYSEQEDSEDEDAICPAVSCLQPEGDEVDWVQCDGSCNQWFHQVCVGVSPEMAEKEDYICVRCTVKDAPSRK", "assay": "Primary screen for KDM5B Histone Demethylases FDH-coupled qHTS; note: nearly all actives have a fitted effect of over 70% in size; for activity change, negative = inhibition: 0% is about no effect", "conditions": "FDH-coupled NADH fluorescence (FDH is formaldehyde dehydrogenase); activity change, negative = inhibition: at 57.7 µM (top of the series) unless noted", "outline": "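Compound dilutions met 200 nM (final) KDM5BΔAP for 10 min at room temperature before substrate addition. The substrate mix held 12.5 µM H3K4me3 with cofactors 25 µM α-ketoglutarate and 50 µM Fe²⁺. NADH signal gain over 30 min defined activity.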"}
{"smiles": "Cc1ccc(C(=O)N2CCN(c3cc(-c4cccs4)[nH]n3)CC2)cc1", "Potency": "inconclusive: 28.2 µM [inhibitor, partial curve, poor fit]"}
{"smiles": "CCOc1ccc(NC(=O)c2ccc3c(c2)CCN3S(=O)(=O)c2ccc(Cl)cc2)cc1", "Potency": "inconclusive: 44.7 µM [inhibitor, single point]"}
{"smiles": "CCCN(CCN(C)C)C(=O)Nc1sc(C(=O)OCC)c(C)c1C(=O)OCC", "Potency": "inactive"}
{"smiles": "Cc1cc(C)cc(NC(=O)CCCn2c3ccccc3c(=O)c3ccccc32)c1", "Potency": "inconclusive: 15.8 µM [inhibitor, partial curve, poor fit]"}
{"smiles": "O=C(NCCc1noc(-c2ccccc2)n1)C1NCCc2[nH]cnc21", "note": "(centres undefined)", "Potency": "active: 35.5 µM"}
{"smiles": "CCn1cc(C(=O)N[C@@H](C)C(=O)NCCCO)c(=O)c2cc3c(cc21)OCO3", "Potency": "inconclusive: 20 µM [inhibitor, single point]"}
{"smiles": "CCCOP(=O)(OCCC)c1nc(-c2ccccc2)oc1NC", "Potency": "inconclusive: 31.6 µM [inhibitor, partial curve, poor fit]"}
{"smiles": "Cc1ccc2nc(-c3ccc4ccccc4c3)cc(C(=O)O)c2c1", "Potency": "inconclusive: 15.8 µM [inhibitor, partial curve, poor fit]"}
{"smiles": "Cc1nc2n(c1C(=O)Nc1cccc(Cl)c1C)CCC(Nc1ccc(F)cc1)C2", "note": "(centres undefined)", "Potency": "inconclusive: 28.2 µM [inhibitor, single point]"}
{"smiles": "COCc1cc(C)n(CC(=O)Nc2cc(Cl)ccc2Cl)c(=O)c1C#N", "Potency": "inactive"}
{"smiles": "Cc1cccc(S(=O)(=O)N2CCCN(C)c3ccccc32)c1", "Potency": "inactive"}
{"smiles": "Cc1cnccc1N1CCCN(Cc2cnc(-c3cccs3)nc2)CC1", "Potency": "inconclusive: 22.4 µM [inhibitor, single point]"}
{"smiles": "O=C(NC1CCN(c2nc3ncccc3o2)CC1)C1CCCC1", "Potency": "active: 35.5 µM"}
{"smiles": "O=C(c1ccc2c(=O)n(CCc3ccccc3)c(=O)[nH]c2c1)N1CCN(c2ccc(F)cc2)CC1", "Potency": "inconclusive: 2.51 µM [inhibitor, full curve, poor fit]"}
{"smiles": "COc1ccc(Cn2c(=O)c3oc4ccccc4c3n(Cc3cccc(C(F)(F)F)c3)c2=O)cc1", "Potency": "inconclusive: 6.31 µM [inhibitor, partial curve, poor fit]"}
{"smiles": "CC(C)Oc1cc(-c2ccc(C(C)N3CCOCC3)cc2)nc(N)n1", "note": "(centres undefined)", "Potency": "inconclusive: 22.4 µM [inhibitor, single point]"}
{"smiles": "Cc1ccc(-c2ccc3ncn(Cc4ccccn4)c(=O)c3n2)c(C)c1", "Potency": "active: 31.6 µM"}
{"smiles": "NNc1cccc2ncccc12", "Potency": "inconclusive: 12.6 µM [inhibitor, partial curve, poor fit]"}
{"smiles": "CCCCN(C)C(=O)C1CCCN(c2ncnc3onc(C)c23)C1", "note": "(centres undefined)", "Potency": "inactive"}
{"smiles": "Cc1c(-c2ccccc2F)[nH]c2ccc(CNC(=O)CCC3=NNC(=O)CC3)cc12", "Potency": "inconclusive: 35.5 µM [inhibitor, partial curve, poor fit]"}
{"smiles": "COc1ncccc1-c1n[nH]c2c1CC(=O)N(Cc1ccccc1)C2", "Potency": "inconclusive: 63.1 µM [inhibitor, partial curve, poor fit]"}
{"smiles": "COc1ccc2[nH]cc(CCNC(=O)C3CC(=O)N(c4n[nH]c5cccc(F)c45)C3)c2c1", "note": "(centres undefined)", "Potency": "active: 22.4 µM"}
{"smiles": "CC(OC(=O)c1cncc(Br)c1)C(=O)C12CC3CC(CC(C3)C1)C2", "note": "(centres undefined)", "Potency": "inactive"}
{"smiles": "O=C(CCC[C@H]1NC[C@@H]2C[C@H]1CN(Cc1ccccc1)C2)N1CCN(C2CCCC2)CC1", "Potency": "inactive"}
{"smiles": "CC(=O)c1cccc(NC(=O)C2CCN(c3nc4ccccc4nc3OC(C)C)CC2)c1", "Potency": "inconclusive: 28.2 µM [inhibitor, single point]"}
{"smiles": "Cc1nnc(N2CCC(C(=O)NCCc3ccccc3Cl)CC2)c2nn(-c3ccccc3)c(C)c12", "Potency": "inconclusive: 28.2 µM [inhibitor, partial curve, poor fit]"}
{"smiles": "CN(CC(=O)OCc1coc(-c2cccs2)n1)S(=O)(=O)c1ccc(Cl)cc1", "Potency": "inactive"}
{"smiles": "Cc1cccc(N2CCN(C(=O)Nc3cn(CC(C)C)c(=O)c4ccccc34)CC2)c1C", "Potency": "inconclusive: 25.1 µM [inhibitor, partial curve, poor fit]"}
{"smiles": "Cn1cnnc1CC1CCN(C(=O)c2ccccc2)CC1", "Potency": "inconclusive: 25.1 µM [inhibitor, single point]"}
{"smiles": "CCOc1ccccc1N(CC(=O)NCCSc1ccccc1)S(=O)(=O)c1ccccc1", "Potency": "inconclusive: 1.12 µM [inhibitor, full curve, poor fit]"}
{"smiles": "COc1cc2c(-c3cc4ccccc4o3)cc(=O)oc2cc1C", "Potency": "inactive"}
{"smiles": "COc1ccc(-c2cc(C(=O)NCCc3cnc[nH]3)c3c(c2)N(C)CCO3)cc1OC", "Potency": "active: 31.6 µM"}
{"smiles": "CCCc1nn(C)c2c(=O)[nH]c(-c3cc(S(=O)(=O)Nc4ccc(C)cc4C)ccc3OCC)nc12", "Potency": "inconclusive: 39.8 µM [inhibitor, single point]"}
{"smiles": "Cc1ccccc1C(C)Nc1ccc([N+](=O)[O-])cc1C#N", "note": "(centres undefined)", "Potency": "inactive"}
{"smiles": "COc1cccc(CN(C)Cc2ccc(C)o2)c1O", "Potency": "inconclusive: 14.1 µM [inhibitor, partial curve, poor fit]"}
{"smiles": "CC(C)c1ccc(CNCCCn2ccnc2)cc1", "Potency": "inactive"}
{"smiles": "Cc1ccccc1-c1nc2cc(NC(=O)Cc3ccc(Cl)cc3)ccc2o1", "Potency": "inconclusive: 17.8 µM [inhibitor, partial curve, poor fit]"}
{"smiles": "CCn1nc(C(=O)NCCC(C)C)c2ccccc2c1=O", "Potency": "inactive"}
{"smiles": "O=C(OCc1nc2ccccc2o1)c1ccccc1", "Potency": "inactive"}
{"smiles": "Cc1cccc(NC(=O)c2cc(C3CC3)nc3ccccc23)c1C", "Potency": "inconclusive: 35.5 µM [inhibitor, partial curve, poor fit]"}
{"smiles": "CCN(C)Cc1cccc(CNC(=O)c2cc(C)nc3ccccc23)c1", "Potency": "inactive"}
{"smiles": "CC(C)c1nc2c(c(-c3ccc(Cl)cc3)n1)CCN(Cc1ccc(C(F)(F)F)cc1)CC2", "Potency": "inconclusive: 50.1 µM [inhibitor, partial curve]"}
{"smiles": "Cc1cccc(N2CCN(C(=O)c3cn(CC(C)C)c(=O)c4c3c3ccccc3n4C)CC2)c1C", "Potency": "inconclusive: 11.2 µM [inhibitor, partial curve, poor fit]"}
{"smiles": "Cc1ccc(NC(=O)CC(c2cccc(F)c2)n2cccc2)cc1N(C)C", "note": "(centres undefined)", "Potency": "inactive"}
{"smiles": "CCC(=O)N1CCC2(CC1)CN(c1ccccc1)C2=O", "Potency": "inactive"}
{"smiles": "COc1ccc(-c2ccc(NS(=O)(=O)c3ccc(C(C)=O)cc3)cc2)nn1", "activity change, negative = inhibition": "inconclusive: -30.4% [inhibitor]"}
{"smiles": "COC(CNC(=O)c1ccc2c3c(onc13)-c1ccccc1C2=O)OC", "Potency": "inconclusive: 1 µM [inhibitor, full curve, poor fit]"}
{"smiles": "Cc1cccc(NC(=O)CCCCCn2c(=O)[nH]c3ccsc3c2=O)c1", "Potency": "inconclusive: 15.8 µM [inhibitor, partial curve, poor fit]"}
{"smiles": "COc1ccccc1CC(=O)N1CCCc2ncc(C(=O)Nc3cccc(Cl)c3)cc21", "Potency": "inconclusive: 56.2 µM [inhibitor, single point]"}
{"smiles": "CCOc1ccc(CCNC(=O)CCCn2nc(C)c3sc4ccccc4c3c2=O)cc1", "activity change, negative = inhibition": "inconclusive: -36.1% [inhibitor]"}
{"smiles": "CCOC(=O)C1CCCN(C(=O)c2cc3c(=O)[nH]c4ccc(C)cc4c3s2)C1", "note": "(centres undefined)", "Potency": "inconclusive: 3.98 µM [inhibitor, partial curve, poor fit]"}
{"smiles": "CCc1nc2ncc(C#N)c(N)n2n1", "Potency": "inconclusive: 39.8 µM [inhibitor, single point]"}
{"smiles": "COCCN1C(=O)c2ccccc2N2C(=O)CCC12C(=O)OCc1cc(=O)oc2cc(C)ccc12", "note": "(centres undefined)", "Potency": "inactive"}
{"smiles": "CCCCn1cnc2c1c(=O)n(CC(O)c1ccccc1)c(=O)n2CC(C)C", "note": "(centres undefined)", "Potency": "inactive"}
{"smiles": "CCN(CCCNC(=O)CN1N=C(c2ccc(OC)cc2)CCC1=O)c1cccc(C)c1", "Potency": "inconclusive: 1 µM [inhibitor, partial curve, poor fit]"}
{"smiles": "Cc1cnc(C(=O)N2CCC(C3CCN(S(C)(=O)=O)CC3)C2)cn1", "note": "(centres undefined)", "Potency": "inactive"}
{"smiles": "COc1cccc(C(=O)Nc2ccc(-c3cc(C(F)(F)F)nn3-c3ccccc3)cc2)c1", "Potency": "inconclusive: 2 µM [inhibitor, partial curve, poor fit]"}
{"smiles": "CC(=O)Nc1cccc(C(C)NC(=O)Nc2cccc(C(F)(F)F)c2)c1", "note": "(centres undefined)", "Potency": "inactive"}
{"smiles": "Cc1ccc(C)c(Cn2c(-c3cccs3)nc3ccccc32)c1", "Potency": "inconclusive: 35.5 µM [inhibitor, partial curve, poor fit]"}
{"smiles": "COc1ccc(-c2ccc3c(c2)C(=O)N2CC[C@H](NC(=O)c4cccs4)[C@H]2C(=O)N3)c(OC)c1", "Potency": "active: 28.2 µM"}
{"smiles": "CC(=O)OC1CCC2(C=O)C3CCC4(C)CC(C5=CC(=O)OC5)CC4(O)C3CCC2(O)C1", "note": "(centres undefined)", "Potency": "inactive"}
{"smiles": "CC(C)Cc1ccc(S(=O)(=O)Nc2cc3c(cc2N2CCOCC2)n(C)c(=O)c(=O)n3C)cc1", "Potency": "inconclusive: 28.2 µM [inhibitor, partial curve, poor fit]"}
{"smiles": "COc1ccccc1NC(=O)Nc1c(NC2CCCC2)c2ccccc2oc1=O", "Potency": "inactive"}
{"smiles": "Cc1c(CC(=O)N2CCN(c3ccc(F)cc3)CC2)c(=O)oc2cc(O)ccc12", "Potency": "inconclusive: 1.78 µM [inhibitor, partial curve, poor fit]"}
{"smiles": "COC(=O)c1ccc(C(=O)N2CCN(C(c3ccc(F)cc3)c3ccc(F)cc3)CC2)s1", "Potency": "inactive"}
{"smiles": "Cc1cccc(OC(C)C(=O)Nc2cc(-c3ccccc3)no2)c1C", "note": "(centres undefined)", "Potency": "inactive"}
{"smiles": "CN(Cc1cccs1)C(=O)c1ccc(S(C)(=O)=O)cc1", "Potency": "inactive"}
{"smiles": "COc1ccc(-c2nnc(SCC(=O)Nc3ccc(C(C)C)cc3)nc2-c2ccc(OC)c(OC)c2)cc1OC", "Potency": "inconclusive: 25.1 µM [inhibitor, single point]"}
{"smiles": "Cc1c(-c2ccc(F)cc2)[nH]c2ccc(CNC(=O)c3cnn(C)c3)cc12", "Potency": "active: 31.6 µM"}
